The values below come from ChEMBL document CHEMBL4888484, “Replenishing the malaria drug discovery pipeline: Screening and hit evaluation of the MMV Hit Generation Library 1 (HGL1) against asexual blood stage Plasmodium falciparum ,using a nano luciferase reporter read-out” (2022).

Among all 150,000 compounds or so, about 540 (0.36%) showed an effect of 50% or more. This is one part of the list.

The assay relates to Plasmodium falciparum. Description: Primary screen in NF54 nanoGlo assay, in single point, at 2uM, 72h; a lower Z score goes with more inhibition. The assay is classed as functional, Erythrocyte. Particulars: timepoint 72 hour.
Regarding `CCc1n[nH]c(=O)c2cc(S(=O)(=O)N3CCN(c4cccc(C)c4)CC3)cn12`, the % Inhibition (as a rule, the drop in the measured response relative to a control, in per cent) was found to be 2% and the Z score is on record as -0.39.

`O=C(CN1CCCCC1=O)Nc1ccccc1CN1CCCCC1`: the “% Inhibition” value is listed as -4% and the Z score is given as 0.6.

As for `O=C(CN1CCS(=O)(=O)CC1)N1CCc2ccccc2C1`, the “% Inhibition” value is recorded as -11% and the Z score was 1.53.

Turning to `CCN(CC(=O)N1CCCNC(=O)[C@@H]1C)c1ccccc1`, the “% Inhibition” value is -10% and the Z score is 1.27.

As for `CCn1cc(C)c(C(=O)O)c1CC(=O)NCCc1ccc(Cl)cc1`, the “% Inhibition” value is recorded as -13% and the Z score is given as 1.77.

Turning to `CCOC(=O)[C@H]1CCCN(C(=O)c2cc3n(n2)CCN(Cc2ccc(Cl)c(Cl)c2)C3=O)C1`, the “% Inhibition” value is on record as -1% and the Z score worked out at 0.08.

Take `CC(C)c1nccn1Cc1nc2cc(F)ccc2o1`: the “% Inhibition” value is recorded as -10% and the Z score came out at 1.32.

For the molecule `CC(C)(C)OC(=O)N1CC(C)(C)C(C(=O)O)C(C)(C)C1`, the “% Inhibition” value is recorded as -2% and the Z score is reported as 0.28.

As to `c1ccc(CC2(c3nc(-c4cnccn4)no3)CCC2)cc1`, the “% Inhibition” value is given as 13% and the Z score is given as -2.33.

For the molecule `Cc1ccccc1[C@H]1CCCN(C(=O)c2n[nH]c(N)c2Cl)C1`, the “% Inhibition” value is 13% and the Z score is reported as -2.49.

Consider `CCOC(=O)c1cnc2ccc(OC)cc2c1NCCc1nc2ccccc2n1-c1c(C(=O)OCC)cnc2ccc(OC)cc12`, for which the “% Inhibition” value was -6% and the Z score was found to be 1.12.

As to `COc1ccc(-c2cc(C(=O)NCc3cccs3)sn2)cc1`, the “% Inhibition” value is listed as -11% and the Z score is given as 1.4.

For the molecule `CCC(=O)N1CCc2cc(Br)c(S(=O)(=O)CCC(=O)Nc3cccc(C(C)=O)c3)cc21`, the “% Inhibition” value was -2% and the Z score was found to be 0.21.

For the molecule `CCn1cc(CN(C)C(=O)[C@@H]2CC(F)(F)CN2C2CN(S(C)(=O)=O)C2)c(C)n1`, the “% Inhibition” value is on record as -7% and the Z score was determined as 0.78.

Turning to `COC1CCN(C(=O)Cc2ccc(-c3ccccc3)cc2)CC1`, the “% Inhibition” value came out at 8% and the Z score is on record as -1.38.

Consider `Cc1cc(C(=O)NCCc2cnn(C)c2)cc2sc(N)nc12`, for which the “% Inhibition” value is -3% and the Z score was determined as 0.42.

Consider `COc1ccc([C@H]2C(=O)N(CCc3ccccc3)CC(=O)N2Cc2ccc(Cl)cc2)cc1`, for which the “% Inhibition” value is reported as -1% and the Z score worked out at 0.16.

With `Cc1ncc(C(=O)N(C)Cc2ccsc2)cn1`, the “% Inhibition” value was -14% and the Z score came to 1.46.

Consider `CC(=O)NCC(=O)N1CCCCC[C@H]1c1noc(-c2ccccc2)n1`, for which the “% Inhibition” value is on record as 7% and the Z score is on record as -0.85.

Regarding `Fc1ccccc1N1CCN(Cc2csc(-c3cccs3)n2)CC1`, the “% Inhibition” value is given as -32% and the Z score is 3.7.

As to `CCc1ncsc1C(=O)Nc1cc(C(N)=O)ccc1CN(C)C`, the “% Inhibition” value is on record as -15% and the Z score was found to be 2.08.

With `Cc1ccc(NC(=O)c2c(C)oc3nc(C)nc(N4CCCC4)c23)cc1`, the “% Inhibition” value is -14% and the Z score came out at 2.46.

Consider `Cc1nccc(CNC(=O)c2cc(C(C)C)ccc2O)n1`, for which the “% Inhibition” value is -3% and the Z score was 0.42.

`CCNC(=O)NCc1ccc([C@H](O)c2ccccc2)s1`: the “% Inhibition” value is listed as -12% and the Z score came to 1.59.

Regarding `CC[C@@H]1Oc2ccc(S(=O)(=O)N3CCN(C(=O)Cc4ccc(OC)cc4)CC3)cc2NC1=O`, the “% Inhibition” value is -16% and the Z score is given as 1.62.

Turning to `Cc1nc(N2CC3(CCCO3)C2C2CC2)c2cc[nH]c2n1` (centres undefined), the “% Inhibition” value is given as -5% and the Z score worked out at 0.9.

Regarding `C[C@@H](CO)NCc1cc(C2CCN(C(=O)OC(C)(C)C)CC2)no1`, the “% Inhibition” value is given as -7% and the Z score is listed as 0.82.

As to `CN=C(NCc1ccccc1Cl)NC1CC1`, the “% Inhibition” value is recorded as 3% and the Z score is recorded as -0.56.

Turning to `c1ccc(-c2nnc(COc3ccc4c(c3)OCO4)o2)cc1`, the “% Inhibition” value is recorded as -1% and the Z score came out at 0.11.

For the molecule `Nc1cc(-c2ccccc2CN2CCOCC2)ccn1`, the “% Inhibition” value is listed as -10% and the Z score turned out to be 1.68.

`Cc1nc2n(c1CN1CCN(C(=O)c3ccon3)CC1)CCCC2`: the “% Inhibition” value is reported as -13% and the Z score is given as 1.89.

Take `CN(C)c1ccc(CNC(=O)c2cc3n(n2)CCCN(Cc2ccc(F)cc2)C3=O)cc1`: the “% Inhibition” value was -10% and the Z score is 0.98.

`CCOC(=O)N[C@H](CNC(=O)c1ccc(F)cc1Br)CC(C)C`: the “% Inhibition” value worked out at 5% and the Z score is recorded as -0.71.

As to `CN1CCN(C(=O)c2ccn(C)n2)C[C@@]12CCC(=O)N(CC1CC1)CC2`, the “% Inhibition” value is -1% and the Z score was found to be 0.16.

Consider `CC(C)C(=O)N1CCCN(S(=O)(=O)c2cccs2)CC1`, for which the “% Inhibition” value was -7% and the Z score is recorded as 1.11.

Take `CCCc1cc(C(=O)N2CCNC[C@H]2C(=O)Nc2ccc(C)nc2)ccn1`: the “% Inhibition” value is -15% and the Z score turned out to be 1.48.

Regarding `Cc1ccsc1CCC(=O)NCCOCCN1C(=O)CCC1=O`, the “% Inhibition” value is on record as -9% and the Z score came out at 1.47.

With `CC(C)(C)c1ccc(N2CCC(NC(=O)c3ccc(C(N)=O)nc3)CC2)cc1`, the “% Inhibition” value was -7% and the Z score came to 0.89.

As to `CN(C)c1ccc(C=C(c2nnnn2-c2ccccc2)c2nnnn2-c2ccccc2)cc1`, the “% Inhibition” value turned out to be 0% and the Z score came out at 0.06.

On to `Cc1nc(C(C)C)sc1C(=O)N(Cc1ccccn1)Cc1ccco1`, for which the “% Inhibition” value is reported as -11% and the Z score was 1.62.

For `Cc1nc(O)c(C(=O)N2CC[C@H](OCCC(C)C)C2)cc1Br`, the “% Inhibition” value was determined as 17% and the Z score is on record as -1.87.

On to `COc1ccc2[nH]c(CNC3CCN(c4ccccc4F)CC3)cc2c1`, for which the “% Inhibition” value is given as -17% and the Z score was 1.58.
